The values that follow come from the supplement of paper PMC11417369.

This is one part of the list.

The test relates to PfHDP1 homeodomain (GST-tagged). The test is described as follows: gcPBM binding intensity (ln(normalized median fluorescence intensity)); higher = stronger DNA binding. A digest of the protocol:
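Alexa488 anti-GST antibody, scanned at 488 nm, detected GST-tagged P. falciparum DNA-binding domains that had been expressed in E. coli and incubated for 1 h on an Agilent 4 × 180k array. The array carried primer-extended double-stranded 36-bp intergenic genomic probes and negative controls. Binding intensity is the highest Masliner-normalised natural-log median intensity across replicate spots of either orientation of each probe.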
Take “ACATAATATATATATTAACACACATCCTTTTATGTA [CACACA_site8317]”: the “gcPBM binding intensity (ln)” value worked out at 6.92. On to “ACTTATATTATAAATTGTACAAATATTATATTTGGT [XGTACX_site1424]”, for which the “gcPBM binding intensity (ln)” value stood at 6.82.

As to “TTATTTTGTTTATTATGTACACAAAGACATAATAAT [XGTACX_site5648]”, the “gcPBM binding intensity (ln)” value stood at 6.58. As for “CACTTACATAATTATTGTACAGATATTATCAAATAA [XGTACX_site567]”, the figure is 6.5.

For “TTTTTTTTTTTTAAATGTACTTATCAACTTTTATAT [XGTACX_site4641]”, the “gcPBM binding intensity (ln)” value was determined as 6.27. As for “AAAAAAAAAAGACACACACACACACGCATATACATA [CACACA_site7289]”, the figure is 6.75. “TACGTAAAAATAATACGTACATATATTTATAGAAAA [XGTACX_site4959]”: the “gcPBM binding intensity (ln)” value was 6.35.

For “ACGGACAATACGGAAACACACAAGTTATTTTATCAT [CACACA_site7310]”, the “gcPBM binding intensity (ln)” value worked out at 6.21. Regarding “AATAAAATAATCCAAGTGCATATGTAAAAATACATT [GTGCAC_site9576]”, the “gcPBM binding intensity (ln)” value was determined as 7.92. As for “AATATATGTAAATGGACACACACATATATATATATA [CACACA_site9220]”, the figure is 9.25. “CTCAATATTATTACTACACACAAATTAATATTTTCC [CACACA_site55]”: the “gcPBM binding intensity (ln)” value amounted to 6.59. The result for “ATATATACTATATTTTAACACACAAAAAAAAAAAAT [CACACA_site8277]” reads 6.5; that for “TGTTAATTGAATGCAATCTGAATTTTTTTACATAAT [CACACA_negctrl_site1002]”, 6.24. As for “CACCCACCCAGACACACACACACAAAAAAAAAAAGA [CACACA_site499]”, the figure is 6.72. Turning to “CTTTTTTCAAGACACACACACAAGAAAATATAAATA [CACACA_site7455]”, the “gcPBM binding intensity (ln)” value amounted to 7.03. In the case of “CGGCACGTGATATATACACACATATAGATATATACA [CACACA_site6408]”, the “gcPBM binding intensity (ln)” value turned out to be 6.54. As for “TGGATAATGAATGATGCACACTAAAAATATTCTACA [CACACA_site5912]”, the figure is 8.46. Consider “TATTTGTAAATCGATACACACATATATCTTAATATA [CACACA_site4273]”, for which the “gcPBM binding intensity (ln)” value stood at 6.28. The result for “TCAAGTATTAAAATGGGTACATAAATATGTGTATAT [XGTACX_site5884]” reads 6.63; that for “CATATAAAAAAATAGACACACATTTTATATAATACG [CACACA_site1896]”, 6.64. As for “TATTTTTCTTTTTTTTTTTTTTTTATATTATACGTG [XGTACX_negctrl_site363]”, the “gcPBM binding intensity (ln)” value was determined as 5.94. The result for “CTTTTTAAATTAAAATGTACAGAAAAATATTATTAT [XGTACX_site8760]” reads 6.3; that for “GAAAATCAGTTAAACACACACATAAAAAAAAAAAAA [CACACA_site2875]”, 6.24. The result for “ATCATATGTATGCATACACACAAAAAGTTATTTATA [CACACA_site6325]” reads 6.86; that for “TGGGAAAACCCCAGAAGTACGCTTAATATAAAAAAT [XGTACX_site697]”, 6.19; that for “ATAATGTTCCTATGATGTACTTATAATTATCATTTT [XGTACX_site4017]”, 6.74.

For the sequence “AAGAGGTTATTACATTCACATAACATCAATATACGT [GTGCAC_negctrl_site264]”, the “gcPBM binding intensity (ln)” value turned out to be 6.13. The result for “ATTAAAATAATATAAACACACATATACTTTTTTCTA [CACACA_site565]” reads 6.25; that for “TATTGTTCGTTTAAGGTGCTATTGTTTGCAAAATAT [GTGCAC_site9412]”, 8.8; that for “ATTTAAAAAAAAATGGCACACATTTTAATTTTATGT [CACACA_site1740]”, 5.92. With “TTTTTAATGATCAGACGTACAGTTATGAAGAAATTT [XGTACX_site6394]”, the “gcPBM binding intensity (ln)” value came out at 6.66. The result for “TTTTTGTTTCGTTACGCATGCCAAAAGTAAAAATAT [TGCATGCA_site536]” reads 6.86. With “TTGTGTCATATATTTTGTAATCAAAATAATTTTATT [TGCATGCA_negctrl_site307]”, the “gcPBM binding intensity (ln)” value was found to be 6.31. As for “TATTATAAATTAATTTTAAACTTTATTATTATGATA [GTGCAC_negctrl_site389]”, the “gcPBM binding intensity (ln)” value came out at 6.25. As for “GTAATGTCGTCGTTTTGTACATATTTTTATAAAAAG [XGTACX_site2688]”, the figure is 7.06; as for “TTAAAATTATATCTGTGTACATAAATTGTGTAACTA [XGTACX_site1966]”, 6.37.

“TATTAGTCGAATGATGTACACACATACAAAACATTT [CACACA_site9331]”: the “gcPBM binding intensity (ln)” value turned out to be 6.42.

For “AAAGGAGACAGAATAAGAATAAATATTATACATATA [XGTACX_negctrl_site412]”, the “gcPBM binding intensity (ln)” value is 6.21. As for “AAAAAAAAAAAGAACTCACACATAATAATGTATATG [CACACA_site4974]”, the figure is 6.07. As for “TTTTATCTCATTCATCAAAATCACCGGAATCATATA [CACACA_negctrl_site357]”, the figure is 6.54. On to AGGTATATATTACAAGTGCACTGTAAAATTAAAATT, for which the “gcPBM binding intensity (ln)” value stood at 10.5. As for “TAATAAACAAATTCCAAAATAAATTAAAAGGAAAAT [CACACA_negctrl_site1404]”, the “gcPBM binding intensity (ln)” value was 6.03. As to “ATTTTATCATAATAAAGTACAAAGATGCAAATAATA [XGTACX_site2270]”, the “gcPBM binding intensity (ln)” value came to 7.55.

Take “TATGCTATAATACTCTGTACTTACTAATTTAATAAT [XGTACX_site5926]”: the “gcPBM binding intensity (ln)” value came out at 6.55. The result for “ATAAAATAAATGAAAAATGTAAAATGAGAAAAAAAT [CACACA_negctrl_site1026]” reads 6.96; that for “TATATATATATATGGGTGCATTTTTTTGTCCATGTA [GTGCAC_site9868]”, 9.37.

For “TACATATTTTTTATATGTACATATTTTTTATGTGTA [XGTACX_site442]”, the “gcPBM binding intensity (ln)” value stood at 6.36.

For the sequence “ATTCATATGTGACACACACACACACGCATAAAAAAA [CACACA_site7515]”, the “gcPBM binding intensity (ln)” value turned out to be 6.87. With “TAGCGTACATTTCATTGTAATCATAAAAAATAAAGA [CACACA_negctrl_site447]”, the “gcPBM binding intensity (ln)” value was 6.49. As for “TTAAAACATATTTTGAATTAATATATTTTAATATTA [XGTACX_negctrl_site148]”, the figure is 5.65. For “TTTATTAGAACCGTACGTACATAGTTATTTTTTCAA [XGTACX_site8848]”, the “gcPBM binding intensity (ln)” value turned out to be 6.1. The result for “ACAAAAATATATATATGTACATATATCATCATAATA [XGTACX_site5850]” reads 6.37. As for “TTTAAAACCCTAAAAAAAAAAAAAAAAAAAAAAAAA [CACACA_negctrl_site1212]”, the figure is 6.26. The result for “GTTTGTATAGGTTCATGTACAAAAAAAAAAAAAAAA [XGTACX_site537]” reads 6.52; that for “ATGCATAAAAGAAATACACACATAAATATGTAAATA [CACACA_site7087]”, 6.36; that for “TTAATCATAAAAGTCACACATAATAAGAAAAAGCTT [CACACA_site4616]”, 6.57. As for “AATATATGAATTAGAAGTACAAATAAATATTTATTT [XGTACX_site2062]”, the “gcPBM binding intensity (ln)” value was 6.48.

As to “AATTAAAAATATAAATGTACATATATGTAAAACTTT [XGTACX_site123]”, the “gcPBM binding intensity (ln)” value was 6.8. The result for “CCCATGCATTTTTGCACACACATATATATATAAATA [CACACA_site1430]” reads 10.8; that for “ATATACACATAAAGTAGTACACCTGAAATTTTTTTT [XGTACX_site2951]”, 6.54. The result for “AATTCATTTAAAAGTTGTACAAGCTTAATAAAAAAA [XGTACX_site6073]” reads 6.75; that for “GAGGATATATTATATGTACACACATATATAACGGAT [CACACA_site8361]”, 6.83; that for “AATACAATTTATAACACACACACAATAATACATATA [CACACA_site1252]”, 7.02. With “GTATTTTTTTTAATATGTACATATAAAATATTTTAT [XGTACX_site8329]”, the “gcPBM binding intensity (ln)” value came out at 6.98. The result for “ATATAAGTTTATATATGTACATATATATATTATATA [XGTACX_site2068]” reads 6.26; that for “CCTCCCATTTTTACACGTACACATTTAAAATAGACT [XGTACX_site5640]”, 7.1. As for “TGAAGAAAATATTAATGTACATATTATATATATATA [XGTACX_site5497]”, the “gcPBM binding intensity (ln)” value was 8.64. As to “ATAATAAAAAAAAAATGTACATAAATCTAAAATCCT [XGTACX_site5823]”, the “gcPBM binding intensity (ln)” value turned out to be 6.22. As for “ATATATTTAAATAAAAGTACGTAAAGGTATATTTAA [XGTACX_site8088]”, the figure is 6.8; as for “AATATAATGTAATATACACACATATATTTCTCTTTT [CACACA_site5451]”, 6.66; as for “AAGAGTTTGAAGTTTGCACACTACGTTAAAAATAAA [CACACA_site3939]”, 10.2. The result for “AAAAATTTATTTTTAGGTACACAATTGAATTATTTA [XGTACX_site7008]” reads 6.01; that for “CCACATTTTACAGACACACACAATTTATATTACGGT [CACACA_site1894]”, 6.67. The result for “TGTAGTCTGGAGAAAAGTACATAGTATCTGATAACC [XGTACX_site2018]” reads 6.4; that for “GTGCATATATGATATACACACAATATAATAGTATGT [CACACA_site2460]”, 7.18; that for “TTGTCCCTATAAGGGGAACACACATAAATGAATATA [CACACA_site8250]”, 6.15.

For “AAAACTATTTGTAAAAGTACATAATAAATAAATAAA [XGTACX_site7922]”, the “gcPBM binding intensity (ln)” value came out at 6.45. As for “ATAATGTTTTATAATACACACATTATGTATATAAAT [CACACA_site4077]”, the figure is 6.66. As for “GAATGTCTAATTTTGATGCACACTTTTGTGCAATTA [CACACA_site2902]”, the figure is 11.1; as for “AAAATTCATATATACACACACGCACATATATATATA [CACACA_site90]”, 9.04. The result for “TTATATTATTCGTGTGTGCACGATATTTCATAATTG [GTGCAC_site9767]” reads 8.92; that for “CAAAAAATTCAACACACACACACACCGATAAATAAA [CACACA_site8330]”, 6.66; that for “ATTTAAATAAGATATACACACAAGTAGAAGACTATG [CACACA_site806]”, 6.66.

Regarding “TTTTCGATGTTGGTAGGAAGTTTGGTACACGTAGTA [TGCATGCA_negctrl_site145]”, the “gcPBM binding intensity (ln)” value amounted to 6.4. For the sequence “CGTATTTATAGAATTACACACCATATTGTAATTATT [CACACA_site7722]”, the “gcPBM binding intensity (ln)” value was determined as 6.47. As for “TTTTTTTTGTAATACGCATGCTAAAAATATTTATAA [TGCATGCA_site656]”, the figure is 6.69; as for “GTGTTTTTATTATTTTGTACACATATATTTAATATT [XGTACX_site2109]”, 7.65. As for “TATATATATATAAGCACACAAACAAAAAAAATTATA [CACACA_site3897]”, the figure is 8.74.
